Source: PubChem BioAssay (Tox21)
Where “and” joins values, the source holds several entries; their conditions need not be identical. Equal entries are not always repeated. The inconclusive results got no clear call from the source; some entries with a clear call stand among them for comparison. For part of these data: A potency beside an inconclusive call is a rough fit, not a confirmed value. Calls of active or inactive are those of the source. Unless noted, calls come from the whole dose curve; as a rule, active = well fitted curve in the direction sought with a large enough effect in the repeat runs; inconclusive = weak or mixed curves; inactive = no such curve, though single readings can be large; an effect the other way counts as inactive or inconclusive.

Key:
[1] = target: Progesterone receptor (Homo sapiens) (UniProt P06401); test: qHTS assay to identify small molecule antagonists of the progesterone receptor (PR) signaling pathway (AID 1346795; active = well fitted inhibition curve with a large enough effect in the signal ratio in the repeat runs, not every such curve was filed as active; inconclusive = weak or mixed curves; the % refers to the signal ratio; note: potency is the fitted concentration of half-maximal effect; for activity change, negative = inhibition: % is set by controls: 0 for no effect and ±100 for the full control effect); settings: PR-UAS-bla HEK293T, beta-lactamase FRET ratio, 16 h; activity change, negative = inhibition: at 92.4 µM (top of the series) unless noted
Method in brief: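 PR-UAS-bla HEK293T cells with beta-lactamase reporter under UAS control, in 2% charcoal-stripped FBS, treated with compounds plus 1 nM promegestone (R5020, final) for 16 hr at 37C. Read-out: FRET beta-lactamase substrate fluorescence after 2 hr at room temperature.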

[2] = Caspase-3/7 induction in HepG2 cells by small molecules, qHTS assay (AID 1346978); note: nearly all actives have a fitted effect of over 15% in size; note: potency is the fitted concentration of half-maximal effect
Method in brief: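 Wild-type HepG2 cells (2,000/well) were settled 5 h at 37 C, 5% CO2, then exposed to compounds in DMSO for 17 h. Caspase-3/7 activity was read by luminescence 30 min after adding Caspase-Glo 3/7 reagent at room temperature.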

[3] = Caspase-3/7 induction in HepG2 cells by small molecules, qHTS cell viability counter screen (AID 1346981); note: nearly all actives have a fitted effect of over 30% in size; note: potency is the fitted concentration of half-maximal effect; for activity change, negative = cytotoxicity: % is set by controls: 0 for no effect and ±100 for the full control effect
Method in brief: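 Wild-type HepG2 cells (2,000/well) were allowed to settle for 5 hr at 37 C, 5% CO2, then dosed with compounds in DMSO by pin transfer. After 16 hr at 37 C, CellTiter-Fluor was added and fluorescence read 1 hr later.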

[4] = target: Cytochrome P450 2C19 (Homo sapiens) (UniProt P33261); test: Cytochrome P450 Family 2 Subfamily C Member 19 (CYP2C19) small molecule antagonists: luciferase reporter qHTS assay (AID 1671197); note: potency is the fitted concentration of half-maximal effect; nearly all actives have a fitted effect of over 65% in size
Method in brief: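 Enzyme-substrate mix with proluciferin substrate (P450-Glo CYP2C19 system) preincubated with compounds 10 min at room temperature; NADPH regeneration solution added, 37C for 1 h; detection reagent stops reaction, luminescence read after 20 min. Ketoconazole positive control.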

[5] = target: Cytochrome P450 2C9 (Homo sapiens) (UniProt P11712); test: Cytochrome P450 Family 2 Subfamily C Member 9 (CYP2C9) small molecule antagonists: luciferase reporter qHTS assay (AID 1671198); note: potency is the fitted concentration of half-maximal effect; nearly all actives have a fitted effect of over 50% in size
Method in brief: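 CYP2C9 activity was measured with a P450-Glo proluciferin substrate. Enzyme–substrate mix was held with compound for 10 min at room temperature, then NADPH regeneration solution was added for 1 h at 37C. Luciferin product was read as luminescence.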

[6] = Caspase-3/7 induction in CHO-K1 cells by small molecules, qHTS cell viability counter screen (AID 1346979); settings: CellTiter-Fluor fluorescence, 17 h; activity change, negative = cytotoxicity: at 92.4 µM (top of the series); note: nearly all actives have a fitted effect of over 35% in size; note: potency is the fitted concentration of half-maximal effect; for activity change, negative = cytotoxicity: % is set by controls: 0 for no effect and ±100 for the full control effect
Method in brief: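 Wild-type CHO-K1 cells (1,500/well) treated with compound after 5 h plating; after 16 h at 37C, viability read as CellTiter-Fluor fluorescence following 1 h reagent incubation, in the same wells as the caspase read.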

[7] = target: Cytochrome P450 2D6 (Homo sapiens) (UniProt P10635); test: Cytochrome P450 Family 2 Subfamily D Member 6 (CYP2D6) small molecule antagonists: luciferase reporter qHTS assay (AID 1671196); note: potency is the fitted concentration of half-maximal effect; nearly all actives have a fitted effect of over 50% in size
Method in brief: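 CYP2D6 enzyme–substrate mix was held with compound for 10 min at room temperature, then NADPH regeneration solution was added and the reaction ran 1 h at room temperature. Luciferin product was detected by luminescence after 20 min with detection reagent.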

[8] = Human pregnane X receptor (PXR) small molecule agonists, qHTS cell viability counter screen (AID 1346977); note: nearly all actives have a fitted effect of over 50% in size; note: potency is the fitted concentration of half-maximal effect; for activity change, negative = cytotoxicity: % is set by controls: 0 for no effect and ±100 for the full control effect
Method in brief: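 PXR-Luc HepG2 cells (2,000/well, 5% charcoal-stripped FBS) preincubated 5 hr, then exposed to compounds 24 hr at 37 C. Viability read in the same wells by CellTiter-Fluor fluorescence, reagent added at 23 hr, 1 hr incubation.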

[9] = target: Nuclear receptor subfamily 1 group I member 2 (Homo sapiens) (UniProt O75469); test: Human pregnane X receptor (PXR) small molecule agonists, qHTS assay (AID 1346982); note: potency is the fitted concentration of half-maximal effect; nearly all actives have a fitted effect of over 35% in size
Method in brief: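 PXR-Luc HepG2 cells (CYP3A4 promoter-driven luciferase) were seeded in medium with 5% charcoal-stripped FBS, left 5 hr at 37 C, then exposed to compounds in DMSO for 24 hr. Luminescence was read after ONE-Glo addition.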

[10] = target: Nuclear receptor subfamily 1 group I member 2 (Homo sapiens) (UniProt O75469); test: Human pregnane X receptor (PXR) activation by small molecules, qHTS assay (AID 1346985); note: % is set by controls: 0 for no effect and ±100 for the full control effect; nearly all actives have a fitted effect of over 40% in size
Method in brief: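 DPX-2 cells (HepG2 co-transfected with a PXR response element and a CYP3A4-promoter luciferase construct) were seeded at 2,000 per well, rested 5 hr at 37C, then exposed to DMSO-dissolved compounds for 24 hr. Activation was read as luciferase luminescence.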

[11] = qHTS assay to identify small molecule antagonists of the TGF-beta/Smad signaling pathway (AID 1346924; active = well fitted inhibition curve with a large enough effect in the signal ratio in the repeat runs, not every such curve was filed as active; inconclusive = weak or mixed curves; the % refers to the signal ratio); settings: SBE-bla HEK293T, TGF-beta/Smad reporter, beta-lactamase ratio; activity, negative = inhibition: at 76.8 µM (top of the series) unless noted
Method in brief: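 SBE-bla HEK 293T cells were plated overnight, then received compound in DMSO plus TGF-beta1 (added as a 0.25 ng/mL solution) and were incubated 5 h at 37 C. Beta-lactamase reporter activity was read after 2 h at room temperature with LiveBLAzer B/G FRET substrate (ex 405, em 460/530 nm).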

[12] = Caspase-3/7 induction in CHO-K1 cells by small molecules, qHTS assay (AID 1346980); note: potency is the fitted concentration of half-maximal effect; nearly all actives have a fitted effect of over 15% in size
Method in brief: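 Wild-type cells were seeded at 1,500 per well and settled 5 hr at 37 C, 5% CO2, then exposed to DMSO-dissolved compounds for 17 hr. Caspase-Glo 3/7 reagent was added, and luminescence was read after 30min at room temperature.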
Tags give direction and shape of the fitted curve.

Sequence of UniProt P06401 (P06401 whole entry, looked up): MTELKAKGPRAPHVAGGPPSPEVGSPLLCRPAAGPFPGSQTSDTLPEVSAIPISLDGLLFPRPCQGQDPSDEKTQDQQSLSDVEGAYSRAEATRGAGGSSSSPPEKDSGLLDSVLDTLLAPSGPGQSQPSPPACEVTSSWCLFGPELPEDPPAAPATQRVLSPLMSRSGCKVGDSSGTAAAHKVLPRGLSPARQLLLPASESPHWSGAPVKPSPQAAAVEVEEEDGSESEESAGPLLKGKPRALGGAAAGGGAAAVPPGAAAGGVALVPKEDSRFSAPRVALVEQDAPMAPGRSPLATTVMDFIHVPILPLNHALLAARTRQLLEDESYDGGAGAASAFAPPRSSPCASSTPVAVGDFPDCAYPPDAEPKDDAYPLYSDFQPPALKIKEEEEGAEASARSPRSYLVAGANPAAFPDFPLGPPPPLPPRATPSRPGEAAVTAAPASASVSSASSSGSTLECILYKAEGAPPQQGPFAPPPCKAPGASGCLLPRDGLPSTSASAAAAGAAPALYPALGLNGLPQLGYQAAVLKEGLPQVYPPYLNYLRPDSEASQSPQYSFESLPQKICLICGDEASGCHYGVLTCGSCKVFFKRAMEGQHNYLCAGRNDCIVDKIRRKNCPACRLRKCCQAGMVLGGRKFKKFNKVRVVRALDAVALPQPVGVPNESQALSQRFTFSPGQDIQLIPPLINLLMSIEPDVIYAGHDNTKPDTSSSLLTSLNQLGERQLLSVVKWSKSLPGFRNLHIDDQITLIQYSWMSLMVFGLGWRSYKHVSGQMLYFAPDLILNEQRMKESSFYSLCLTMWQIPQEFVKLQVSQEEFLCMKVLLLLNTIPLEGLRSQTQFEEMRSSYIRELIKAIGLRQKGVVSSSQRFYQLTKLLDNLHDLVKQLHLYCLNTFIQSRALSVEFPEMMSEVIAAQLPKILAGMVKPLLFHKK
Sequence of UniProt P33261 (P33261 whole entry, looked up): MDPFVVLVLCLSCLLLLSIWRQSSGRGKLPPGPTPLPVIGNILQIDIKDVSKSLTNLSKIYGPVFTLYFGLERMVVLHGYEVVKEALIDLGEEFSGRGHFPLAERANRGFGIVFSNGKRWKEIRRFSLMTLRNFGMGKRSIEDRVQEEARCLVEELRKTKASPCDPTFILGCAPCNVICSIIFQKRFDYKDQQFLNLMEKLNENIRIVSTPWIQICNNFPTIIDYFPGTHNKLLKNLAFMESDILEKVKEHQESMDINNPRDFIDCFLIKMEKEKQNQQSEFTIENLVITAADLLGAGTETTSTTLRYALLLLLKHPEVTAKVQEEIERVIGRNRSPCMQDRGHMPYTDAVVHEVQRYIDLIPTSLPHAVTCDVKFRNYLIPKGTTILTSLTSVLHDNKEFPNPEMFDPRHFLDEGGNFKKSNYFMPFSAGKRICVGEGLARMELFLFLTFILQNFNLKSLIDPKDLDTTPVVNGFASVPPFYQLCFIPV
Sequence of UniProt P10635 (P10635 whole entry, looked up): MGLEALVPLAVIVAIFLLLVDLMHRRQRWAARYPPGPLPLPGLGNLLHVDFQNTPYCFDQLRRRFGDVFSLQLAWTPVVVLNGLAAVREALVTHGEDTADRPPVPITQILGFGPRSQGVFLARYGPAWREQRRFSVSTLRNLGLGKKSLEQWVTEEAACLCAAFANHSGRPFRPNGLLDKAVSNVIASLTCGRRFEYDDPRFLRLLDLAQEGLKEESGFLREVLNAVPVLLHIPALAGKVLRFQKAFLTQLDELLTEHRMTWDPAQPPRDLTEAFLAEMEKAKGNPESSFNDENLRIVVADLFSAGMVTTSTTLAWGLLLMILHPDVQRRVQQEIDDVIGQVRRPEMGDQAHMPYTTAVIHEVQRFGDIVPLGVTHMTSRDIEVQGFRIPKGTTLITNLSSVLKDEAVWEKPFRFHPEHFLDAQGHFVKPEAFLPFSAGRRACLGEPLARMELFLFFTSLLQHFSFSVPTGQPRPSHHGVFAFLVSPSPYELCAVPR
Sequence of UniProt P11712 (P11712 whole entry, looked up): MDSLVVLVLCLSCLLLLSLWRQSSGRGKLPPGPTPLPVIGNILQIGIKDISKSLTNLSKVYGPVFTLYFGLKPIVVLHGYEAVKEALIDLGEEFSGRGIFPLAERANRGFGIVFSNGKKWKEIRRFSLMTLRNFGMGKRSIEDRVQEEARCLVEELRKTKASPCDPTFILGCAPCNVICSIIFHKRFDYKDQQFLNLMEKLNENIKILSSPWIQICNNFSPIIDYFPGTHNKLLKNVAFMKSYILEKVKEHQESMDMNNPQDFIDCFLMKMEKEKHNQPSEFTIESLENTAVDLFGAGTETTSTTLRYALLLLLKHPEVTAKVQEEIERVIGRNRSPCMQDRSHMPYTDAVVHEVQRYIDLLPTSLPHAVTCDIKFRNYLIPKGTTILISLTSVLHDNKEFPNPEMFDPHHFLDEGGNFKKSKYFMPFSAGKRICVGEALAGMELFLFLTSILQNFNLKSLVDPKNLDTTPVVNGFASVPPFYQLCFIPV
Sequence of UniProt O75469 (O75469 whole entry, looked up): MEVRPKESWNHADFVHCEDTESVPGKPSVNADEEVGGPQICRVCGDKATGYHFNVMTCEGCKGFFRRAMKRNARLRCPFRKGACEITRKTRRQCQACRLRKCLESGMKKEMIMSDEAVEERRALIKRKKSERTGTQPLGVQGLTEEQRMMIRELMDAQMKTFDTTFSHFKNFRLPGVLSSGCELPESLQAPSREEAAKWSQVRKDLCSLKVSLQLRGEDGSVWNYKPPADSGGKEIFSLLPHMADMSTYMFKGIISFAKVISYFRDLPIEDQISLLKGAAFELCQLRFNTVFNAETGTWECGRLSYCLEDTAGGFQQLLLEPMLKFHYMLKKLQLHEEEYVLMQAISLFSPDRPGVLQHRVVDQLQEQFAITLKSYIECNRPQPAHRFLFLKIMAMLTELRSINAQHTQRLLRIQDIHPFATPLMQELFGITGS

Structure (SMILES): CC(=O)CCC1=C(C)CCCC1(C)C
- activity change, negative = inhibition [1]: inconclusive: -7.24%
- Potency [2]: inactive
- Potency [3]: inconclusive: 24.3 µM [rising, single point]
- Potency [4]: active: 35.6 µM
- Potency [5]: active: 31.7 µM

Structure (SMILES): Cc1ccc2c(ccc3ccccc32)c1
- Potency [1]: inconclusive: 27.4 µM
- Potency [6]: inactive
- Potency [3]: inactive
- Potency [7]: inconclusive: 63.5 µM [inhibitor]

Structure (SMILES): O=C(/C=C/c1ccc(O)c(O)c1)O[C@@H](C(=O)O)[C@@H](OC(=O)/C=C/c1ccc(O)c(O)c1)C(=O)O
- Potency [1]: inactive
- Potency [8]: inconclusive: 61 µM [cytotoxic, single point]

Structure (SMILES): COc1cc(Nc2c(C#N)cnc3cc(OCCCN4CCN(C)CC4)c(OC)cc23)c(Cl)cc1Cl
- Potency [1]: active: 11.9 µM
- Potency [8]: active: 11.9 µM
- Potency [2]: active: 11.9 µM

Structure (SMILES): CN(C)C(=O)Nc1ccccc1
- Potency [1]: inactive
- Potency [8]: inactive
- Potency [4]: inconclusive: 89.4 µM [inhibitor, single point]

Structure (SMILES): CCC(CN)=C(c1ccccc1)c1ccccc1
- Potency [1]: inconclusive: 26.6 µM [falling, partial curve]
- Potency [8]: inconclusive: 33.5 µM [cytotoxic, single point]
- Potency [6]: inconclusive: 33.5 µM [cytotoxic, single point]
- Potency [9]: inconclusive: 33.5 µM [activator, single point]
- Potency [7]: active: 4.36 µM

Structure (SMILES): COc1cc(NCc2ccc3nc(N)nc(N)c3c2C)cc(OC)c1OC
- Potency [1]: inconclusive: 0.15 µM [falling, full curve]
- Potency [8]: inconclusive: 33.5 µM [cytotoxic, partial curve]
- Potency [6]: active: 26.6 µM
- Potency [3]: active: 26.6 µM

Structure (SMILES): O=C(C(Cl)Cl)N1CCOC12CCCCC2
- activity change, negative = inhibition [1]: inconclusive: -27.6%
- Potency [2]: inactive
- Potency [3]: active: 61.1 µM

Structure (SMILES): C=C(C)C(=O)OCCOCCOCCOCCOC(=O)C(=C)C
- activity change, negative = inhibition [1]: inconclusive: 13.5%
- Potency [2]: inactive

Structure (SMILES): CN(C)CCc1c[nH]c2ccc(C[C@H]3COC(=O)N3)cc12
- activity change, negative = inhibition [1]: inconclusive: 4.76% [at 42.5 µM]
- Potency [2]: inactive
- Potency [10]: inactive
- Potency [7]: inconclusive: 27.5 µM [inhibitor, partial curve]

Structure (SMILES): NC(=O)NNc1ccccc1
- Potency [1]: inactive
- Potency [8]: inactive

Structure (SMILES): Cc1cc(C)c(O)c(C(C)(C)C)c1
- Potency [1]: inactive
- Potency [2]: inconclusive: 61.1 µM [activator, partial curve, poor fit]
- Potency [6]: inconclusive: 68.6 µM [cytotoxic, single point]
- Potency [4]: inconclusive: 89.4 µM [inhibitor, single point]
- Potency [5]: inconclusive: 35.6 µM [inhibitor, partial curve]

Structure (SMILES): CCCCOC(=O)CO
- Potency [1]: inactive
- Potency [8]: inactive

Structure (SMILES): Cc1cccc(CN2CCN(C(c3ccccc3)c3ccc(Cl)cc3)CC2)c1 (stereo not drawn)
- Potency [1]: inconclusive: 26.6 µM
- Potency [6]: inconclusive: 33.5 µM [cytotoxic]

Structure (SMILES): BrC(Br)C(Br)Br
- Potency [1]: inactive
- Potency [8]: inactive
- Potency [4]: inconclusive: 89 µM [inhibitor, single point]

Structure (SMILES): CCOc1ccc(OCC)c(Cl)c1
- Potency [1]: inconclusive: 6.86 µM [falling, single point]
- Potency [6]: inconclusive: 77 µM [rising, partial curve, poor fit]

Structure (SMILES): CCCOC(=O)c1c(Cl)c(Cl)c(Cl)c(Cl)c1C(=O)OCCC
- Potency [1]: active: 17.2 µM
- activity, negative = inhibition [11]: inconclusive: -34.5%
- Potency [12]: inconclusive: 68.6 µM [activator, partial curve, poor fit]

Structure (SMILES): CC(=O)OCC1=C(C(=O)O)N2C(=O)[C@@H](NC(=O)CSc3ccncc3)[C@H]2SC1
- Potency [1]: inconclusive: 0.237 µM [falling, partial curve, poor fit]
- Potency [8]: inactive
- Potency [4]: inconclusive: 34.7 µM [inhibitor, single point]

Structure (SMILES): CC1(C)NC(=O)N(c2ccc([N+](=O)[O-])c(C(F)(F)F)c2)C1=O
- Potency [1]: active: 17.2 µM and active: 11.9 µM
- Potency [8]: inconclusive: 77 µM [cytotoxic, partial curve, poor fit]
- Potency [3]: inconclusive: 27.3 µM [rising, single point]

Structure (SMILES): O=S1(=O)CCCO1
- activity change, negative = inhibition [1]: inconclusive: 8.46%
- Potency [6]: inconclusive: 77 µM [rising, partial curve, poor fit]
- Potency [3]: inactive
